Reference: the supplement of paper PMC10126150
Values marked as one replicate rest on one cluster of the flow cell; about a third of the high ones do not repeat.

Tested on: ATP
Assay: switch fluorescence ratio, 500 uM ATP over buffer (Cy3 cluster intensity, sum of 5 cycles each) (fold (ratio)); higher = stronger signal-on switching upon ATP binding; sequences stand for … in TCGTCGGCAGCGTCAGATGTGTATAAGAGACAGTTTTTTTTTTTTTTTTTTTTTTTTT…TC
Conditions: aptamer strand: ATP DNA aptamer (quencher-CACCTGGGGGAGTATTGCGGAGGAAGG + anchor), 100 nM annealed; ATP concentration: 500 uM; one replicate
Method in brief: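 Values give the fluorescence ratio for each switch-domain sequence, averaged from per-cluster ratios of summed target-cycle to summed buffer-cycle Cy3 intensity. The Cy3-labelled switching-strand clusters sat on a modified Illumina MiSeq flow-cell, were annealed to 100 nM quencher-labelled ATP aptamer, and were imaged in selection buffer, then after 15 min with 500 uM ATP at 22 °C. Five cycles ran with NaOH stripping and re-annealing between them, and clusters outside 100-1000 RFU were excluded.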
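Also: ATP exposure 15 min at 22 °C before imaging.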

Sequence | switch fluorescence ratio
CAGTCGGCCC | 0.959
CAGTATCTGT | 0.993
AGCGGTATA | 0.974
CAGGATAGTT | 0.982
GTAGGTGGAA | 0.983
TCAATCTGAA | 0.948
GGTTACGGAC | 1.37
AAGAAAATGG | 0.973
ATCGGTTAAG | 0.974
TTGCTTCA | 0.959
AGATGTGGCG | 0.967
TGACGTACAC | 1.67
CAGAAAGGTA | 1.04
TATAAACTGG | 1.07
AAGCGGTTAT | 0.968
TCAACTTAGG | 1.02
TCGCCTTGCA | 0.974
TCCTCTTTGG | 1.03
GAGGCTTATC | 1.03
TCGCGGGATG | 1.03
TCTGAGGGAG | 1.04
TGGGCGAATA | 1
ACAATTTAAG | 1.07
GGTTGGCCCT | 1.01
CGCGGCCATG | 0.999
GAGCGTCGTA | 1.14

Sequence | switch fluorescence ratio
ACCCGGGATG | 6.75
ATATTTGTGA | 0.959
CTGGTGTTGG | 1.04
AACCCCGCGT | 1.66
TCCCTTCTGT | 1.04
TGTTGCGGTG | 0.962
TGATGCTCAG | 0.98
GATGCTATGT | 1.04
AATCGGGGTG | 1.01
CTAGGGCCCC | 1.08
GGAAGATGCG | 0.972
TACTGCGCGC | 1.09
TATGTGGAG | 0.996
CGTAGTTGGC | 0.929
AGCAGGCCTG | 1.02
ATAGTGACTG | 1.05
TCGGAGACT | 1.02
ATTGTGTAAT | 1.05
TTGTGGAGA | 1.06
TGCGGTCCGT | 1.77
TGGGAGCTTA | 1.06
GACTTCTCCT | 1.05
GTTCACAATA | 1.1
GGGGTACAAA | 1.03
CGACCACC | 1.25
CTGAAGATGC | 1.61

Sequence | switch fluorescence ratio
CTCGTGGGGA | 1.01
CCATTAAGTA | 1.06
GGGTTCACTT | 0.998
TCTGGGAGTG | 0.999
GAGCGACTGG | 1.02
AGCGTAATTG | 1.04
TGGTGTCGCC | 1.01
ATGGGCACCA | 1
TATGAAACAG | 0.983
CGGTGCAACG | 0.975
ACGATCGTAC | 1.02
ACCACTCGGT | 0.988
CAAGATAAGA | 0.993
AGAGTATAAT | 1
AATTCGTCTA | 0.986
TGGCTAATTC | 1.01
AGTTTTCCAA | 1.03
AAGCCGTAG | 1.01
TGAGTTCCTG | 0.984
AGGTCAGTGG | 1.04
TCGCTTGTCC | 1.05
CGACTCTCTC | 1.06
ACATAAAGGA | 1.03
TTAGGCACTT | 1.08
ATGGGATGTA | 1.03
GGTCTTAGCC | 1.01

Sequence | switch fluorescence ratio
TGCTTGGTCG | 0.984
GCTTAAAGTA | 1
TTAGTTTTT | 0.994
TGTTGATGCT | 0.957
TTACCCCACA | 1.31
TTATGGAGAC | 1.05
TACGAAAAAA | 1.18
CACTGTTGGC | 1.01
AATTTGCC | 1.01
AAAGACCTGT | 1.01
TTTCCCCAGT | 1.02
AATCACCACT | 1.02
GGGAATGGCT | 0.963
CTATGGGAGT | 0.942
AATCTTCGGA | 0.993
CGCGATCCCG | 1.08
CAAGGTTGTC | 1.08
ATAGTTAATT | 0.986
TCCTCAAC | 1.02
CCGTGCGCCG | 1.03
GTGTATGGC | 1.04
CCTATCGT | 1.06
CGATGGTCAG | 1.01
GGGTCGTTGT | 1.04
AATTAAGCAA | 1.79
CAAATATGGT | 1.01

Sequence | switch fluorescence ratio
GGTCTGATCT | 0.984
TTTAGTACAT | 0.981
TATACTGCCG | 0.999
AAGATGATTC | 0.991
CTTCATCAGT | 1.08
TTTTGCGTA | 0.972
GTAAATCTAA | 0.945
TTCTTTCAAT | 1.93
GCATATCTGA | 0.964
TGAGAGGAAC | 0.923
TTAAATGTAT | 1.07
CAGAAATGGT | 1.02
CGCGGATACT | 5.32
AGCCAATCGT | 0.984
AGAATGAAAA | 1.08
GGTAGCCGCC | 0.976
TAGAGCCCC | 1.06
AGATGTCCGG | 1.01
CGTTGTATTT | 0.983
AATCTGTTGC | 0.977
CATCTGAGGT | 0.996
TCATGTCCTA | 0.944
CCAAATGCAC | 1.57
AGAATAGTTC | 1
TATGAGTTCA | 0.981
TTGTAGGGCA | 1.05

Sequence | switch fluorescence ratio
ATCCCTCTGT | 1.01
ATGAGTCGTC | 0.956
TATGCTACCG | 1.05
TGTTTCAAT | 0.929
CAAACATAGG | 1.01
AACTTCCACC | 1.65
GTACTAGGAC | 0.994
CCTAGTGGCA | 1
GTGCGCTAAA | 0.967
ACAAGGTCCC | 1.01
GCCACGTGTT | 0.981
CGTTGAGTAA | 1
TTAGCGATCA | 1.08
TTTTCATGCG | 0.989
ATACTGATCA | 1.03
AAGATCGTGC | 0.988
GGGGCCCCTA | 0.993
GTAGCGGGGC | 1.35
TTCAGTTGCC | 1.02
CAACCTTTGG | 1.04
ATTACACCAT | 1.09
GGTAAGAACC | 1.01
CCATTCACAG | 1.02
CGTGTGTCCA | 1.01
GTTAGAATTG | 0.97
ACTGTTTCAA | 0.984

Sequence | switch fluorescence ratio
ATTGCAGGGC | 0.999
ATTATGGG | 0.947
TCAGAAATAA | 0.979
TGCTGGCCGC | 1
CAGTTTCACT | 1.01
TTATCATAG | 1.03
TCGGGTAACT | 1.02
CGACTTTTGG | 0.925
TAACGGGGAG | 0.965
CAAGTCAGGT | 1.01
TGTGATTAA | 1.01
AGGATCCTGT | 0.982
GTTAAATCCT | 1.16
GATAGGGGTA | 0.96
CTTGTATTCG | 0.95
GTCTGGATAG | 1.02
TGCGTGCGCT | 1.04
GTAGGTAGAG | 0.968
CGATTATGT | 1.02
CCAGCTGGGG | 1.01
TTGATGTGTC | 1.04
GCCAGATTGC | 1.05
GTCGTCGCCT | 1.17
CGCCGGCAAA | 1.05
CTCCAGCTAG | 2.18
TCGTGGCCGC | 1.22

Sequence | switch fluorescence ratio
TCGCTAATTT | 1.2
GATCGGTATC | 1.03
CGGCTAATGT | 1.02
TGTTTTTGTG | 1.02
GCATGTGTTA | 0.964
CCGTCATTGG | 1.29
GGTTGTAAC | 0.94
GATCTAGTGC | 1
GGCTATGGAA | 1.05
CTAAGTTTTA | 1.03
CCTGAATCTT | 1.02
ATATTCTAAG | 0.997
GGGTATGACA | 1
CAAGTTTCCG | 0.971
CTCTCTCTAT | 1.03
GGTAGGTAGA | 1.04
TATGCCTGTA | 1.09
TTCGGAAGTA | 0.977
CCGTCTTCCG | 1.02
